Reference: PubChem BioAssay AID1346428 (National Center for Advancing Translational Sciences (NCATS), 2018)
Several values for one entry are separate records, joined by “and”; a condition that tells them apart may be missing. Equal values may be shown once. In all, about 48,000 compounds went through this assay and about 1,200 (2.5%) were called active. Not shown: some 2% with an inconclusive outcome.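 How the source made its calls: active means activation of at least 60% and not above a set upper limit (about 1 call in 100 departs from these limits); inconclusive means activation of 40% to 60%, or above that upper limit; inactive means activation under 40%.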 Some of the results follow.

target: Probable G-protein coupled receptor 32 (Homo sapiens) (UniProt O75388); assay: qHTS for Agonists of Human Resolvin D1 Receptor DRV1; settings: CHO-K1 GPR32 beta-arrestin PathHunter luminescence, 90 min; at 76.9 µM; hits give high values; zero percent set by DMSO-only wells; further: 0% is about no effect
Chain of UniProt O75388 (O75388 whole entry, looked up, the tested form may be a part): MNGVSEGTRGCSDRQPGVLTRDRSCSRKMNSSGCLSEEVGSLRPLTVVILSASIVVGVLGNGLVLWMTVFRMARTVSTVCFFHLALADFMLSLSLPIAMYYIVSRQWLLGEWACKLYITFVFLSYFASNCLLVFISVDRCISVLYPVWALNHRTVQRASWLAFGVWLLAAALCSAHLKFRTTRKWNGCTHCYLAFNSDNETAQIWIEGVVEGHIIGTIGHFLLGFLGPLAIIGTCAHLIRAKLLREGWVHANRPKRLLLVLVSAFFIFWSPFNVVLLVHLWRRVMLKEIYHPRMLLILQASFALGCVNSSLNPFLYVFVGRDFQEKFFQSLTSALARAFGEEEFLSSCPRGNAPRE
How it was run: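 Agonism was scored by beta-Gal fragment complementation (chemiluminescent read, 1 h detection at ambient temperature) reporting beta-arrestin binding to GPR32 in engineered CHO-K1 cells. Compound treatment lasted 90 min at 37 C, normalized to a DMSO basal control.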

Row | Compound | activation
1 | Nc1nc(N)nc(NC2CC2)n1 | inactive: 0.33%
2 | Nc1c(C(=O)Nc2ccc(Cl)cc2)sc2nc3c(cc12)N1CCC3CC1 | active: 76.8%
3 | Nc1ccc(N=Nc2ccccc2)cc1 | inactive: -75.3%
4 | Cn1cc(/C=C/c2nc3ccccc3c(=O)n2-c2ccccc2)c2ccccc21 | inactive: -8.23%
5 | O=C(Nc1ccc2c(c1)OCO2)c1cccn(Cc2cccc(F)c2)c1=O | inactive: 0.456%
6 | Cc1ccc(-c2nc3ccc(C)cn3c2CC(=O)N(C)C)cc1 | inactive: 11.3%
7 | C[C@H](N)CN1CCc2ccc(Br)cc21 | inactive: -6.39%
8 | CC(C(=O)c1ccccc1)N(C)C (configuration not stated) | inactive: 5.57%
9 | Cc1c(Cl)cccc1NC(=O)CN1C(=O)C(C)N=C(c2ccccc2)c2ccccc21 (configuration not stated) | inactive: 8.06%
10 | COc1cc(C(c2c(O)c3ccccc3oc2=O)c2c(C)n(C)n(-c3ccccc3)c2=O)ccc1OCC(=O)O (configuration not stated) | inactive: 6.2%
11 | O=C(Nc1ccc(Cl)cc1C(=O)c1ccccc1)c1ccccc1Br | inactive: -24.2%
12 | CN1CCc2cc(Cl)c(O)cc2[C@H]2c3ccccc3CC[C@@H]21 | inactive: 33.8%
13 | NCCc1ccc(S(=O)(=O)F)cc1 | inactive: 14.4%
14 | Nc1c(C(=O)Nc2ccc(Br)cc2F)sc2nc3c(cc12)N1CCC3CC1 | inactive: -0.953%
15 | Cc1cccc(-n2c(/C=C/c3c(C)[nH]c4ccccc34)nc3ccccc3c2=O)c1 | inactive: 3.87%
16 | CCN(CC)CCOC(=O)C(C)(c1ccccc1)c1ccccc1 | inactive: -2.94%
17 | COc1ccccc1NC(=O)N(Cc1ccc2c(c1)OCO2)C1CCN(Cc2ccccc2)CC1 | inactive: -17.8%
18 | CN[C@@H]1C[C@@H](c2ccc(Cl)c(Cl)c2)c2ccccc21 | inactive: 15.1%
19 | O=[N+]([O-])c1cc(O)c(O)c([N+](=O)[O-])c1 | inactive: -32%
20 | CCc1ccccc1NC(=O)c1cccn(Cc2ccccc2F)c1=O | inactive: 11.7%
21 | CCCC(C)C1(CC)C(=O)N=C(S)NC1=O (configuration not stated) | inactive: -20.7%

Row | Compound | activation
22 | O=C(Nc1ccc2c(c1)OCCO2)c1cccn(Cc2cccc(F)c2)c1=O | inactive: -0.872%
23 | Nc1ccccc1C(=O)O | inactive: -11.6%
24 | COc1ccc(-c2nc(CN3C(=O)CN=C(c4ccccc4)c4cc(Cl)ccc43)c(C)o2)cc1 | inactive: -33.1%
25 | CCOc1ccc2nc(NC(=O)c3cccn(Cc4ccc(Cl)cc4)c3=O)sc2c1 | inactive: 14.4%
26 | Cc1cc(O)ccc1Cl | inactive: 19.8%
27 | O=C1OC(CCN2CCCCC2)OC1(c1ccccc1)c1ccccc1 (configuration not stated) | inactive: 36.1%
28 | N[C@@H](Cn1ccc(=O)[nH]c1=O)C(=O)O | inactive: -4.86%
29 | COc1ccc(OC)c(NC(=O)Cn2cc(C(=O)c3ccccc3)c3ccccc32)c1 | inactive: -12.7%
30 | O=C(Nc1ccc(Cl)cc1C(=O)c1ccccc1)c1cc(Cl)cc(Cl)c1 | inactive: -3.98%
31 | C=C(C)[C@H]1CN[C@H](C(=O)O)[C@H]1CC(=O)O | inactive: 8.55% and inactive: 2.9%
32 | NC1CC1c1ccccc1 (configuration not stated) | inactive: -5.38%
33 | CCOc1ccc2nc(NC(=O)c3cccn(Cc4ccccc4)c3=O)sc2c1 | inactive: 9.98%
34 | CSc1ccc(CN2CCN(C(=O)COc3ccc(C)cc3)CC2)cc1 | inactive: -8.29%
35 | C=CCN1C[C@@H](C)N([C@H](c2ccc(C(=O)N(CC)CC)cc2)c2cccc(OC)c2)C[C@@H]1C | inactive: -2.53%
36 | COc1ccc(CN2CCNCC2)c(OC)c1OC | inactive: -7.61%
37 | COc1ccc2c(c1)c(CCN1CCOCC1)c(C)n2C(=O)c1cccc(Cl)c1Cl | inactive: -30.2%
38 | CCCN(CCC)CCc1c[nH]c2ccc(C(N)=O)cc12 | inactive: -4.56%
39 | CC(C)(N)Cc1ccc(Cl)cc1 | inactive: -6.76%
40 | COc1ccc(C)cc1NC(=O)c1cccn(Cc2cccc([N+](=O)[O-])c2)c1=O | inactive: -6.1%
41 | COCCOCCO | inactive: -25.1%
42 | c1ccc2c(N3CCNCC3)cccc2c1 | inactive: -13%

Row | Compound | activation
43 | Cc1ccc(-n2c(/C=C/c3cccs3)nc3ccccc3c2=O)cc1C | inactive: -29.3%
44 | COc1cccc(/C=C/c2nc3ccccc3c(=O)n2-c2ccc(Cl)cc2)c1OC | inactive: -20.6%
45 | O=C(N[C@H]1CN2CCC1CC2)c1ccc(Cl)cc1 | inactive: -5.71%
46 | O=[N+]([O-])c1ccc2nc(N3CCNCC3)ccc2c1 | inactive: -7.6%
47 | CCCC12CN3CC(CCC)(CN(C1)C3c1ccccn1)C2=O (configuration not stated) | inactive: -2.59%
48 | C[C@]12C=CC(=O)C=C1CC[C@@H]1[C@@H]2CC[C@@]2(C)[C@H]1CC[C@]2(C)O | inactive: -0.0299%
49 | C[C@]12CC[C@H]3[C@@H](CCC4=CC(=O)CC[C@@H]43)[C@@H]1CC[C@@H]2O | inactive: -2.63%
50 | COc1cc(CC(C)N)c(OC)cc1Br (configuration not stated) | inactive: -24.6%
51 | COc1ccc(OCC(=O)N2CCN(CCc3ccccn3)CC2)cc1 | inactive: 19.9%
52 | C[N+]1(C)C2CCC1CC(OC(=O)C(CO)c1ccccc1)C2 (configuration not stated) | inactive: 8.09% and inactive: 1.77%
53 | O=c1c2ccccc2[se]n1-c1ccccc1 | inactive: -3.32%
54 | CCCN(CCC)C1Cc2cc(OC)c(OC)cc2C1 | inactive: -2.67%
55 | Clc1ccccc1N1CCNCC1 | inactive: -3.8%
56 | CC(C)c1ccc(NC(=O)CN2C(=O)CN=C(c3ccccc3)c3ccccc32)cc1 | inactive: -4.39%
57 | C[C@]12CC[C@H]3[C@@H](CC=C4C[C@@H](O)CC[C@@]43C)[C@@H]1CC[C@@H]2O | inactive: 9.7%
58 | CC(C)(C)C(O)C(Oc1ccc(Cl)cc1)n1cncn1 (configuration not stated) | inactive: -48.1%
59 | c1ccc2c(c1)Nc1ccccc1S2 | inactive: 41.1% and inactive: -14.5%
60 | Cc1cccc(CN2C(=O)CN=C(c3ccccc3)c3cc(Cl)ccc32)c1 | inactive: -11.9%
61 | CN(C)CCc1c[nH]c2cccc(O)c12 | inactive: 0.604%
62 | CCCc1ccc(OCC(=O)Nc2ccc(Cl)cc2C(=O)c2ccccc2)cc1 | inactive: -7.11%
